From the supplement of paper PMC3334620
Over roughly 33,000 sequences, “E-score (-0.5 to 0.5)” has its median near -0.032; the highest 2% begin near 0.36. The list shows a part of the results.

biological target: T1, Sko1 (UniProt Q02100); assay: PBM E-score (8-mer binding enrichment) (E-score (-0.5 to 0.5)); higher = stronger / more preferred TF binding; most listed sequences are background and not binding sites; conditions: protein concentration: 200 nM; construct: GST-full length
T1 sequence: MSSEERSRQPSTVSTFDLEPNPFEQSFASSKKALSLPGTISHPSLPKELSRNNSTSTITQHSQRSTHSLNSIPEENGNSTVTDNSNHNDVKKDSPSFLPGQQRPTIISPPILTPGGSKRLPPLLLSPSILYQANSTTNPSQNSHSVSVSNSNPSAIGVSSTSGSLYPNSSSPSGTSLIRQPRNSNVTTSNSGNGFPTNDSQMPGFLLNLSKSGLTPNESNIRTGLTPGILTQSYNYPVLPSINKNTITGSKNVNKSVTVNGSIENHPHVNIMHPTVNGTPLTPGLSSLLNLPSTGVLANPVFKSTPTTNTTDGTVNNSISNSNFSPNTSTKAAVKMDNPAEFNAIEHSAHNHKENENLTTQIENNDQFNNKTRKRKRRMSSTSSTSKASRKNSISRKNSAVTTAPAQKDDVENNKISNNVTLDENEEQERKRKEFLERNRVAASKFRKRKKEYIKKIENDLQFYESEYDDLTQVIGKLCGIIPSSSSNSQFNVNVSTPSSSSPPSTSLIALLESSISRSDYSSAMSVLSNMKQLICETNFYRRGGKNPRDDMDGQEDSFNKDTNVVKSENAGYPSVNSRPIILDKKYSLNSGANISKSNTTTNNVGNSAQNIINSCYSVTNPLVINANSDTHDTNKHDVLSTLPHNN
Outline: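 Detection of bound protein used fluorescent anti-GST, with scans normalised by masliner. The proteins were GST-tagged yeast transcription factors applied at about 100-200 nM to universal all-10-mer Agilent arrays made double-stranded by primer extension. Each ungapped eight-base word, pooled with its reverse complement, was scored with an E-score from the Universal PBM Analysis Suite.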

Sequence | PBM E-score
GGTTTGGA | 0.104
TAAGCACA | 0.168
GTGAGGGA | -0.134
CGGGTCCC | -0.396
AATTCTGA | 0.0665
GTCCTCAA | -0.126
CAACGTCG | 0.222
GACGCGGA | -0.0051
ATGTGCTC | 0.0491
ATCCCATG | -0.0929
ATACACTC | 0.0972
CTCAAGGC | -0.334
ATCCAGCA | 0.107
GGTCAGCA | -0.122
GCGTATAC | 0.365
CCGCATAC | -0.0691
CGTTGTAC | 0.208
AGGAGAAC | -0.173
ATGGAGTA | -0.1
ACACAAAG | 0.0427
CAAATCAA | 0.141
CCGCACAC | -0.185

Sequence | PBM E-score
CAAGTATG | 0.0253
TCGAGCGA | 0.0305
AGATCGGA | 0.0328
CCTGATTA | 0.0438
ACAGTACA | -0.0864
AATTGTCC | -0.0383
CCCGGGCC | -0.327
ATGTGGCG | -0.0276
GCCCTCGC | -0.222
GTGTATAA | -0.0223
CCGACTGA | -0.162
CACACTCA | 0.137
CCGACGCC | -0.00118
AATAGGGT | -0.112
AGCCTCCC | -0.282
ATACACTA | 0.0967
GAAGTCAA | 0.0458
AGCCTTTC | -0.293
ATTCAACA | 0.13
AATCCTTA | -0.0613
CCTTTAAC | -0.0213
CCCCCCCG | -0.334

Sequence | PBM E-score
ATTCGCGA | 0.0843
ATAGTCAT | 0.107
AAAAGCCT | -0.188
CACGCTCC | -0.17
CAGATATA | 0.0956
CGAATCCG | 0.00159
CTTGAGGC | -0.219
AACAGTAC | 0.0808
ACGCTGGC | -0.0994
TTATGCAA | 0.247
ATTGTACA | 0.0552
AAGTACGC | 0.193
GTGACAGA | -0.0286
ACTGAACG | -0.114
CGCCGGCA | -0.279
CAAAGGCC | -0.25
ACGGGCCA | -0.205
GACTGTGC | 0.0399
CCCCTGCG | -0.215
CCGACCCA | -0.361
GAAACGAC | 0.178
AAAAAAAC | 0.2

Sequence | PBM E-score
ACCCCGTA | -0.0729
ACCTAACA | 0.056
CAAGGACG | -0.129
ACTTGAGG | -0.182
GCTGCACA | -0.208
AGACAGTG | -0.112
ATGTCTGG | -0.0872
AGAATTCT | 0.16
CCTGTCGC | -0.329
AGGGAATG | -0.0677
AGACTTTA | 0.0576
GAAATCTA | 0.102
AGCACAGA | 0.0216
GAATAGCA | 0.0421
CCTTTTTC | -0.115
GTAGTTTA | 0.148
CACGAGAA | -0.13
CTCGTGAA | 0.14
CCATCGGA | -0.251
GACCTAGC | -0.0851
GCGGTTAA | -0.186
GTGAACGA | 0.0244

Sequence | PBM E-score
GCTTTTAC | 0.263
CCGGCACA | -0.119
AGAGGCCG | -0.217
ATATAAAA | 0.177
ACTTATCT | 0.0568
ACGGTTTA | -0.0562
ATTGATGC | 0.0723
CGATCGAG | -0.0776
GCATAACA | 0.156
CTGAATCA | -0.0522
GCATGGAC | -0.0216
CAGACCGG | -0.16
CGAGACAC | -0.0858
AGGCCAAC | -0.15
GTTGTTTA | 0.101
ATCTTGGA | -0.106
ACTCTAGA | 0.154
CCCTAATC | -0.161
ACGAAAGG | 0.156
CATGCCCA | -0.357
GCGGCCGC | -0.285
